Measured values taken from article PMC4336329 (PLoS ONE, 2015).
About 2,200 (0.71%) of roughly 310,000 compounds showed an effect of 50% or more. Effects have a minus sign here. The list shows a part of the results.

The molecules below were run against human ether-à-go-go-related gene (hERG) potassium channel (human, UniProt Q12809) (assay: primary screen, population patch clamp on CHO cells stably expressing hERG).
Chain of human ether-à-go-go-related gene (hERG) potassium channel (Q12809 whole entry, looked up): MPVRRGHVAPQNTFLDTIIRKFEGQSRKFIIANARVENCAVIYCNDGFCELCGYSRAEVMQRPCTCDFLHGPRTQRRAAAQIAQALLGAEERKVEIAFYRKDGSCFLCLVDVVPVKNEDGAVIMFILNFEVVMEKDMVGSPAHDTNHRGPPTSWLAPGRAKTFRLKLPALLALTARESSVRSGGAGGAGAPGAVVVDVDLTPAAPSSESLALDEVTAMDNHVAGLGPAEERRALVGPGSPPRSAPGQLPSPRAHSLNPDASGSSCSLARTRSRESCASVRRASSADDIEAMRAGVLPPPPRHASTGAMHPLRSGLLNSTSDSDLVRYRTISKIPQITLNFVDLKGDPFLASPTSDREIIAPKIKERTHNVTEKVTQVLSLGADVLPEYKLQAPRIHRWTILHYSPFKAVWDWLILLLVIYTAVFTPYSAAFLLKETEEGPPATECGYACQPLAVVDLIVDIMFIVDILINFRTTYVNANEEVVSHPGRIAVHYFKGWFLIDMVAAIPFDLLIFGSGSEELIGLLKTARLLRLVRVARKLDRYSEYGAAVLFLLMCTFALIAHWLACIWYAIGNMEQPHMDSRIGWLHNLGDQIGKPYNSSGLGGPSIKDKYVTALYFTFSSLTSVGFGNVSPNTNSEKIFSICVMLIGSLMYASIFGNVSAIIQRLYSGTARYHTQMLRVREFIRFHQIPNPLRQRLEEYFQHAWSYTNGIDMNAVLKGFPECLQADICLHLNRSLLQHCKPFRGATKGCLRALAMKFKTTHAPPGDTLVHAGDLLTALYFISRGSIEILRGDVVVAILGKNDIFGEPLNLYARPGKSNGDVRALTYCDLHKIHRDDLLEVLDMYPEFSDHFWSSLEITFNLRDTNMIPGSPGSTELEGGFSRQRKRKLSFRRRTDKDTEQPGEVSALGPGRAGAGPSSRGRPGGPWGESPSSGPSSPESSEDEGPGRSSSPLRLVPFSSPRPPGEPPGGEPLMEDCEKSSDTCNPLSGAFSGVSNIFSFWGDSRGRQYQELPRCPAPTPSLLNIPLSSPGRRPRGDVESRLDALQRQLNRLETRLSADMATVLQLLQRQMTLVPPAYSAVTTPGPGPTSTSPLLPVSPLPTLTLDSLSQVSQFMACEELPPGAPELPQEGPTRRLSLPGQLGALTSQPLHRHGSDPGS

| Compound | hERG current change (%, negative = inhibition) at 1uM |
| --- | --- |
| COc1cc(CCC(=O)N2CCN(S(=O)(=O)c3ccc(C)cc3)CC2)cc(OC)c1OC | -3.92% |
| CC(C)S(=O)(=O)C/C(N)=N/OC(=O)c1cc(Cl)cc(Cl)c1 | 16.4% |
| CC(=O)c1ccc(N2CCN(CC(O)COC(c3ccccc3)c3ccccc3C)CC2)cc1 (stereo not drawn) | 9% |
| COC(=O)C1=CN(Cc2ccc(OC)cc2)C=C(C(=O)OC)C1c1cc(OC)c(OC)c(OC)c1 | 13.5% |
| O=C(COc1ccc(F)cc1)N(c1ccccn1)C1CCCCC1 | 6.95% |
| C=CCNc1nc(-c2sc(NC(=O)CC)nc2C)cs1 | 8.55% |
| CCN(CC)CCCNC(=O)c1cn(C)c2ccc(S(=O)(=O)N(C)C3CCCCC3)cc2c1=O | 12.2% |
| COC(=O)c1ccc(-c2noc(CN3CCCC(CNC(C)=O)C3)n2)cc1 (stereo not drawn) | 14.5% |
| COC(=O)c1c(Cc2ccccc2Cl)c[nH]c1C | 8.16% |
| Cc1cccc(-c2oc3ccc(-c4ccc5c(c4)OCO5)cc3c2C(=O)OCc2ccc(O)cc2)c1 | 7.23% |
| C[C@@H]1CN(C(=O)c2cc(COc3cccc(C(F)(F)F)c3)on2)C[C@H](C)O1 | 2.57% |
| CCCCN(CCCNC(=O)Cn1nc(CC)n2c(cc3sc(C)cc32)c1=O)Cc1ccccc1 | -1.82% |
| O=C(NCc1ccco1)C1CC(c2c(Cl)cccc2Cl)=NO1 (stereo not drawn) | 20.9% |
| CC(=O)N1c2ccc(S(=O)(=O)NCCC(=O)N3CCCC(C)C3)cc2CC1C (stereo not drawn) | 13.2% |
| O=C(CSc1c2c(nc3ccccc13)CCC2)N1CCCC1 | 1.89% |
| COc1cccc(CN(C)CC(=O)NC(=O)NCc2ccco2)c1 | 12.6% |
| CC(=O)N1CCN(C(=O)c2ccc(-c3cccc(C(F)(F)F)c3)o2)CC1 | -19.2% |
| CCOc1ccc(C(=O)NCC(=O)NNC(=O)C2COc3ccccc3O2)cc1OCC (stereo not drawn) | 8.79% |
| CN(C)c1nc(SCC#N)nc(N(C)C)n1 | 4.35% |
| C=CCc1ccccc1OCC(=O)N/N=C/c1ccc(OC(C)=O)cc1OC(C)=O | 13.6% |
| CC(OC(=O)c1cccn1C)C(=O)Nc1ccc2c(c1)OCO2 (stereo not drawn) | -10.7% |
| CCOc1cc(/C=C/C(=O)Nc2ccc(C(=O)NCCN(CC)CC)cc2)ccc1OCC(C)C | 20.9% |

| Compound | hERG current change (%, negative = inhibition) at 1uM |
| --- | --- |
| CC(=O)Nc1ccc(OCC(O)Cn2cncn2)cc1 (stereo not drawn) | 19% |
| CS(=O)(=O)Nc1ccccc1C(=O)Nc1ccc2c(c1)OCCO2 | 17.2% |
| C[C@@]12N[C@@H](Cc3ccccc31)c1ccccc12.O=C(O)/C=C\C(=O)O | 13.9% |
| CC1CCCCC1NC(=O)COC(=O)c1cc(=O)c2ccccc2o1 (stereo not drawn) | 7.83% |
| N#CCC(=O)NNc1c([N+](=O)[O-])cc(C(F)(F)F)cc1[N+](=O)[O-] | 20.1% |
| CC(=O)c1ccc(N(C(=O)Cn2nnc(-c3ccccc3)n2)C(C(=O)NC2CCCCC2)c2ccccn2)cc1 (stereo not drawn) | 9.02% |
| COc1ccc(OCC(=O)NC(=S)Nc2ccccc2F)cc1 | 3.81% |
| C=CCOc1ccc(/C=N/NC(=O)C(C)Sc2ccccn2)cc1OC (stereo not drawn) | 10.6% |
| CNC(CC(=O)c1ccc([N+](=O)[O-])cc1)C(Cl)(Cl)Cl (stereo not drawn) | 12.6% |
| Nc1nonc1-n1nnc(C(=O)N/N=C/c2ccc(OCc3ccccc3F)cc2)c1CNc1ccccc1 | 19% |
| O=C(CN1C(=O)C2CC=CCC2C1=O)Nc1nc2ccc(F)cc2s1 (stereo not drawn) | 6.54% |
| COc1ccc(C(=O)C2(C)N(O)C(C)C(c3cccs3)=[N+]2[O-])cc1 (stereo not drawn) | 7.05% |
| CCOc1ccc2[nH]c(=O)c(CN(Cc3cccs3)Cc3nnnn3C(C)(C)CC)cc2c1 | -15.2% |
| COc1cccc(N2CC(C(=O)Nc3nnc(SCCN4CCOCC4)s3)CC2=O)c1 (stereo not drawn) | 5.34% |
| O=CNCC(=O)NCCc1ccc(Cl)cc1 | 9.55% |
| Cc1cc(C)cc(NC(=O)Nc2c(Br)cnn2C)c1 | -13% |
| CC(=O)N1c2ccc(S(=O)(=O)N(C)c3cc(C)ccc3C)cc2CC1C (stereo not drawn) | 13.9% |
| Cc1cc(-c2nnc(CCC(=O)N3CCN(Cc4cccc(F)c4)CC3)o2)c(C)o1 | 6.7% |
| Cc1c(NC(=S)N/N=C\c2ccccc2O)c(=O)n(-c2ccccc2)n1C | 0.605% |
| CCN1CCC(N(C)C2CCCCC2)CC1 | 7.09% |
| Cc1ccc(C(=O)Nc2ccc(O)cc2C(=O)O)cc1 | 19.6% |
| Cc1cc(Cn2ccnc2)c(C)cc1Cn1ccnc1 | 3.61% |

| Compound | hERG current change (%, negative = inhibition) at 1uM |
| --- | --- |
| CC(C)(C)NC(=O)Cn1nnc(-c2ccc(S(C)(=O)=O)cc2)n1 | -1.92% |
| CCCNC(=O)C1CCC(CNS(=O)(=O)c2cccc3nsnc23)CC1 (stereo not drawn) | 16.5% |
| Cc1onc(-c2c(F)cccc2Cl)c1C(=O)NC1CCSC1=O (stereo not drawn) | 6.78% |
| CC(C)(C)C(=O)NC1=NCCS1 | 9.65% |
| O=C(/C=C(\O)c1ccc(Cl)cc1)C(=O)NNC(=O)C(O)(c1ccccc1)c1ccccc1 | -0.849% |
| CC#CCCCC(=O)Nc1cccc(C(=O)O)c1 | 14.7% |
| CCn1c(=O)c2ccccc2n(Cc2cccc(C)c2)c1=O | 15.6% |
| CC1Cc2ccccc2N1Cc1cccc(S(=O)(=O)N(C)C)c1 (stereo not drawn) | 6.58% |
| Cc1ccc(C2(C(=O)N3CCC(n4nc(-c5ccccc5)oc4=O)CC3)CC2)cc1 | 4.96% |
| COc1ccc(C2(CNC(=O)c3ccc(OC)c([N+](=O)[O-])c3)CCOCC2)cc1OC | 4.5% |
| c1ccc2c(-c3[nH]ncc3CNCCCn3ncc4ccccc43)cccc2c1 | 5.16% |
| Cc1cc(-c2nnnn2-c2ccc(F)cc2)no1 | 12.2% |
| CCCCn1nc(C(=O)N(CC)CC(=O)Nc2c(F)cccc2F)c2ccccc2c1=O | 3.53% |
| O=c1[nH]c(/C=C/c2ccccc2[N+](=O)[O-])nc2ccccc12 | 1.73% |
| CC1CCC(NC(=O)COC(=O)C2CC3CCCC(C2)C3=O)CC1 (stereo not drawn) | 3.94% |
| O=C(O)CSC1c2ccccc2C(=O)N1c1ccccc1 (stereo not drawn) | 9.95% |
| Cc1ccc(N=Cc2cc3c(cc2[N+](=O)[O-])OCO3)cc1[N+](=O)[O-] | 16.4% |
| Cc1ccc(C)c(OCCC(=O)OCC(=O)Nc2cccnc2Cl)c1 | 17.8% |
| Cc1ccc(NC(/C=C/N(C)C)=C/C(=O)C(F)(F)F)c(C)c1 | -5.03% |
| CCN(c1ccccc1)c1nc(C#N)nc(N(CC)c2ccccc2)n1 | 3.83% |
| CCOC(=O)N1CCN(C(=O)c2cc(COc3c(F)cccc3F)on2)CC1 | -15.7% |
| COc1ccc(OC)c(Cc2nnc(CCC(=O)NCc3nc4ccccc4s3)o2)c1 | 8.8% |

| Compound | hERG current change (%, negative = inhibition) at 1uM |
| --- | --- |
| O=C(O)c1cccc(Oc2cccc(Cl)n2)c1 | 6.45% |
| Cc1cc(NC(=O)c2cccc(Oc3ccccc3)c2)n[nH]1 | 14.8% |
| COc1ccccc1NC(=O)Nc1nn(C)c2cccc(N(C)C)c12 | 12% |
| COc1ccc(NCc2nnc(SCC(=O)Nc3cc(C(F)(F)F)ccc3Cl)o2)cc1 | 14% |
| CC(OC(=O)c1ccc(NS(=O)(=O)c2cccs2)cc1)C(=O)N(C)C1CCCCC1 (stereo not drawn) | 7.67% |
| COc1ccc(N2C(=O)CC(N3CCN(Cc4ccc5c(c4)OCO5)CC3)C2=O)cc1 (stereo not drawn) | 17% |
| CCC(C)NCCCOc1ccc([N+](=O)[O-])cc1.O=C(O)C(=O)O (stereo not drawn) | -73.7% |
| CCCOc1ccc(CNC(=O)CCC(=O)n2ncc3cc(C)ccc32)cc1 | 16.2% |
| Cc1cccc(NC(=O)c2cccc(S(=O)(=O)N3CCc4ccccc4C3)c2)n1 | 23.8% |
| CC(CCCC(C)(C)O)NCCO (stereo not drawn) | 7.66% |
| COc1ccccc1N1CCN(C(=O)CSc2nc3ccccc3[nH]2)CC1 | 6.33% |
| COC(=O)c1ccc(NC(=S)NC(=O)c2cc(-c3ccccc3)nc3ccccc23)cc1 | 9.36% |
| C[C@H](NC(=O)c1[nH]cnc1C(=O)Nc1cccc(Cl)c1)c1ccccc1 | 15.2% |
| O=C(C1CCN(S(=O)(=O)c2cccs2)CC1)N1CCCCCC1 | -8.5% |
| CCOc1ccc(CN(C)c2ccc(S(=O)(=O)N3CCN(C)CC3)cc2[N+](=O)[O-])cc1OC | 9.49% |
| C=CCn1c(CCNC(=O)c2cccs2)nnc1SCC(=O)c1cccc([N+](=O)[O-])c1 | -0.426% |
| CN(C)CCn1c2c(c(SCC(=O)N3CCc4ccccc43)nc1=O)CCCC2 | -6.68% |
| O=C1Nc2ccccc2/C1=C/C(=O)c1cccs1 | 8.18% |
| COCCNC(=O)/C(C#N)=C/c1ccc(N2CCOCC2)o1 | 5.25% |
| CCC(=Nc1cc(OC)ccc1OC)c1c(O)[nH]c(=O)[nH]c1=O | 5.53% |
| COc1cccc(CNC(=O)Cc2ccc(NC(=O)C3=C(C)OCCS3)cc2)c1 | 9.76% |
